# Some of the results follow.
# Target: T1, OsWOX13 (Oryza sativa, UniProt Q5QMM3 1-267)
# T1 sequence: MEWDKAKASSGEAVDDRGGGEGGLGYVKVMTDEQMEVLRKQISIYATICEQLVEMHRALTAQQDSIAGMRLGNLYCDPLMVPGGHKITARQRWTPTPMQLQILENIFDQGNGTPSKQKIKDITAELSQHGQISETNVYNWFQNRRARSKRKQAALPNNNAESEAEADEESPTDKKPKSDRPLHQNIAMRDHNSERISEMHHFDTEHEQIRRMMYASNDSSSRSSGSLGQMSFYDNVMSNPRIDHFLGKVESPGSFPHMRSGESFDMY
# Test: protein-binding microarray (RPBM); PBS, 2% BSA, 51.3 ng/ul salmon testes DNA, 50 uM zinc acetate, 200 nM TF, 25 C, 1 h; high values mean tight binding
# Conditions: protein: recombinant; tags: N-terminal polyhistidine and DsRed monomer fusion (pET32a); label: CyDye5-dUTP incorporated in the synthesized complementary strand; 3' TTTTT single-stranded linker to array surface; dsDNA, one strand shown
# Method in brief: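 The binding signal is fluorescence intensity per feature, in arbitrary units, read on an Axon 4000B scanner. Polyhistidine- and DsRed-tagged transcription factors (N-terminal fusions) from E. coli BL21-CodonPlus were purified on Ni–NTA and applied at 200 nM for 1 h at 25 °C to a double-stranded, BSA-blocked custom Agilent array in buffer with 50 µM zinc acetate.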
row,Sequence,binding signal
1,AGTTAATAACAAGAAATTATTCATTTAAATTTAGGGCAAACGGAGTCACCTAGTGCAG,9460 fluorescence intensity (a.u.)
2,GCAAATAACTGAATGAACGTTTATCTCATTCCGGCACGCACGGAGTCACCTAGTGCAG,8180 fluorescence intensity (a.u.)
3,CGTCCCTAAATTGGACAAAATTACACTGAACTACGCAGATCGGAGTCACCTAGTGCAG,7270 fluorescence intensity (a.u.)
4,TTGTTTTGATTAATTGCAGTTTTAGACTTGCTCCGCTTCTCGGAGTCACCTAGTGCAG,33100 fluorescence intensity (a.u.)
5,CTCGACATGCTATGATTAGTGAATCTTAATATTTTGTATTCGGAGTCACCTAGTGCAG,4120 fluorescence intensity (a.u.)
6,ACAGTTATTAATACGTGATTAATTAAGTACCCATTAATACCGGAGTCACCTAGTGCAG,28300 fluorescence intensity (a.u.)
7,GTGTTTAATTAGGAGGGAATTCATATCCTTTGTTTGGTGGCGGAGTCACCTAGTGCAG,20500 fluorescence intensity (a.u.)
8,GAAGCAATCAATTAAAATAATGCCTTGAGTGCATGCAATTCGGAGTCACCTAGTGCAG,18300 fluorescence intensity (a.u.)
9,ATAATTGTTTAGTTCCTTCAAACTTTCAACTTTTCCGTCACGGAGTCACCTAGTGCAG,14600 fluorescence intensity (a.u.)
10,CGTGATTTACCATTTACGTTACGAGTAATCTCCCTATGAACGGAGTCACCTAGTGCAG,27600 fluorescence intensity (a.u.)
11,GGCTTAATAGATTTAATTAATTGAAGGATAATCGAACCGTCGGAGTCACCTAGTGCAG,43900 fluorescence intensity (a.u.)
12,CATATTACGATAAATTAGTATTAGGCCGACCCAAGGCCTGCGGAGTCACCTAGTGCAG,6820 fluorescence intensity (a.u.)
13,TTTAATTGATACAAGTTGCTGGGATCATTTGTACCCAAAACGGAGTCACCTAGTGCAG,38200 fluorescence intensity (a.u.)
14,GTGGTGTAGGAGCAAATTGACGAGATGCGAGCAGTGCGACCGGAGTCACCTAGTGCAG,7570 fluorescence intensity (a.u.)
15,AGGATAACAATTGATATTAGTTTATTCTCTAATATTCATGCGGAGTCACCTAGTGCAG,6550 fluorescence intensity (a.u.)
16,GGTTCAACGGTACCCTTGATTGCTATAGAGAGTGATATATCGGAGTCACCTAGTGCAG,4670 fluorescence intensity (a.u.)
17,TGCAGAGTAATGATTAGAACCAAACCTCGTCAATTCAAGGCGGAGTCACCTAGTGCAG,3450 fluorescence intensity (a.u.)
18,ATAAGTTAATAGATAGATTAACTTCATTTCTGATTATGAACGGAGTCACCTAGTGCAG,15900 fluorescence intensity (a.u.)
19,TGTTGATTGTTGTGTTTAATTGGAGATTGACTATTGAATCCGGAGTCACCTAGTGCAG,60200 fluorescence intensity (a.u.)
20,CATTCCTGATTATGCAAATCAATGACCAGGCCATAATTGTCGGAGTCACCTAGTGCAG,31000 fluorescence intensity (a.u.)
21,ATTGAACTTAATTTGTTTGGAGAAGGGGCGGCATGGTACCCGGAGTCACCTAGTGCAG,9790 fluorescence intensity (a.u.)

row,Sequence,binding signal
1,ACTAATTAGCACTCCCAATGTCATATTATAGAGGGCATACCGGAGTCACCTAGTGCAG,39700 fluorescence intensity (a.u.)
2,GCTGGATTAGTACTAATCTTGGTACTACTTGTTTAAATTTCGGAGTCACCTAGTGCAG,5700 fluorescence intensity (a.u.)
3,CAGGATTGATCAGCAAATCAAGCGATGATGATAAGAACAACGGAGTCACCTAGTGCAG,14900 fluorescence intensity (a.u.)
4,AGATAAATTATGCGACACGCTAATAATACAGATCTATGCACGGAGTCACCTAGTGCAG,9780 fluorescence intensity (a.u.)
5,AACTAATTAAAGCACAAGATACGCATGTTATCTCAATAAACGGAGTCACCTAGTGCAG,3960 fluorescence intensity (a.u.)
6,ACGAACAAAATTAATCAGGAAGATCAACACGAAGCCGGACCGGAGTCACCTAGTGCAG,4060 fluorescence intensity (a.u.)
7,AGTTGATTTTGAACTTACAATGATATTCTCTGGTAGTAGTCGGAGTCACCTAGTGCAG,13800 fluorescence intensity (a.u.)
8,TTTCTTTACTGATTGGTTTGTTTTATGCGCACATTGTTACCGGAGTCACCTAGTGCAG,27600 fluorescence intensity (a.u.)
9,CAAAATTAGTTTGATTCTAAAATTGAATATATTTTGATAACGGAGTCACCTAGTGCAG,10600 fluorescence intensity (a.u.)
10,AGAGTTAAATTACACCGGTTTTAACAGCTGAGGGGCCATACGGAGTCACCTAGTGCAG,6400 fluorescence intensity (a.u.)
11,TTGCTAATGACGGATTAATTATGCTTAATAAATTCATCTCCGGAGTCACCTAGTGCAG,20600 fluorescence intensity (a.u.)
12,TATTCAATCATCCAAGGTTTGCATATCATTGACCGGCGTGCGGAGTCACCTAGTGCAG,14400 fluorescence intensity (a.u.)
13,CCAAACTTCTAATTTTGATGTGAACACCCTATGTTATAAACGGAGTCACCTAGTGCAG,3540 fluorescence intensity (a.u.)
14,CGAGACCATGATAGATAGGCTTTCCAAACTTCCTAGCCAGCGGAGTCACCTAGTGCAG,9220 fluorescence intensity (a.u.)
15,CCTAAATTATCGTGGAACTGTACGTCAGTGTAATAATTGTCGGAGTCACCTAGTGCAG,14300 fluorescence intensity (a.u.)
16,CAAGACAAATTTAGTTTATACCTTTAAAAGTCTGTCATCTCGGAGTCACCTAGTGCAG,4030 fluorescence intensity (a.u.)
17,GAATAATTGCTGGAACGCAGGATTCCCTTCTGGGCCTCCGCGGAGTCACCTAGTGCAG,18200 fluorescence intensity (a.u.)
18,CAGAATGACAACATTGACTGATTGACACTAGAAATACATACGGAGTCACCTAGTGCAG,39000 fluorescence intensity (a.u.)
19,TAGATCTTAGCTTAATTAGCTTAGATTATACAAGTGGTCACGGAGTCACCTAGTGCAG,4760 fluorescence intensity (a.u.)
20,CTTGATATTAGTGATACAAAATTTCGTCAGCCATAGACGGCGGAGTCACCTAGTGCAG,3900 fluorescence intensity (a.u.)
21,AATGTCTGCAATTAATCAATCTGTTAATCTGTTATTAGTACGGAGTCACCTAGTGCAG,21900 fluorescence intensity (a.u.)

row,Sequence,binding signal
1,GGTTTGAAAGAGTTAATTAGGGTTGAATCTTTCACATTAGCGGAGTCACCTAGTGCAG,8180 fluorescence intensity (a.u.)
2,AACTAACTGGCACGCCCTCATATCACCAACCTTTGGACCTCGGAGTCACCTAGTGCAG,11700 fluorescence intensity (a.u.)
3,TTCAATCAATATATGTCAAACTCTCCCCACAGTCATCAAACGGAGTCACCTAGTGCAG,6960 fluorescence intensity (a.u.)
4,CAGATGAAATTGGTACTTATACTTGGCTTTCAGTACACACCGGAGTCACCTAGTGCAG,5400 fluorescence intensity (a.u.)
5,CCCAATTAAATGCCCGAATCATTCTTCTCGGCCCACTCTGCGGAGTCACCTAGTGCAG,4330 fluorescence intensity (a.u.)
6,GCTAATCACGGACTAATTAGGCTTAAAAGATTCGTCTCGTCGGAGTCACCTAGTGCAG,44500 fluorescence intensity (a.u.)
7,TTAATTTACTTTTATAATCAAGTAGATAATACTATGTGACCGGAGTCACCTAGTGCAG,7760 fluorescence intensity (a.u.)
8,ACAAATTTATGAACTTTAGTTGATTTGTAACTTTTCTAGACGGAGTCACCTAGTGCAG,5230 fluorescence intensity (a.u.)
9,TTGTGATTACTAAGAATACTGACATAGAACCCAACTTTCCCGGAGTCACCTAGTGCAG,9040 fluorescence intensity (a.u.)
10,AAGGCTAATTAATTAATTAATTAATAGTCGTAATTAAACACGGAGTCACCTAGTGCAG,50500 fluorescence intensity (a.u.)
11,TAATGATTTGCCTCGCTTGAACCTTACACCTTAGTTGATCCGGAGTCACCTAGTGCAG,10400 fluorescence intensity (a.u.)
12,AAAATTATGAAGATATATCAATTTCACAAACATGCAAGTTCGGAGTCACCTAGTGCAG,5260 fluorescence intensity (a.u.)
13,GAATGAATTGAAACAGACAATGCACACGCTTAGTCCATGACGGAGTCACCTAGTGCAG,5890 fluorescence intensity (a.u.)
14,ACTTGATGTGATATATCCTAGTCCAACGAATCTGGACAGCCGGAGTCACCTAGTGCAG,6940 fluorescence intensity (a.u.)
15,TTAGCTATTCAATAATTTGACAAGTTAAACTACTTATTGTCGGAGTCACCTAGTGCAG,5420 fluorescence intensity (a.u.)
16,ATGGATAGATTGAAACATCAAGGACTAAACTGTGTCTCAGCGGAGTCACCTAGTGCAG,46100 fluorescence intensity (a.u.)
17,GGATCAAATTGCCACATATGCGCCACGTTAATGCCACATCCGGAGTCACCTAGTGCAG,3520 fluorescence intensity (a.u.)
18,GTGATAATCATAACAAGTGATAACCTTGATGCACGGGAAACGGAGTCACCTAGTGCAG,5800 fluorescence intensity (a.u.)
19,ACATAATTATTTAGTATGGATATGTGTTGCAAGCTTGCAGCGGAGTCACCTAGTGCAG,20600 fluorescence intensity (a.u.)
20,TATGATATATTCTGTCAAACCTATGTACTATACACCTTACCGGAGTCACCTAGTGCAG,3560 fluorescence intensity (a.u.)
21,TGTAATTTCCGTCAACTAAAGCCCAATTGAATCAAGGTTCCGGAGTCACCTAGTGCAG,14000 fluorescence intensity (a.u.)

row,Sequence,binding signal
1,ATGGGTTAATTGCTTATTTGCAATGATTTATCAGGCTGGACGGAGTCACCTAGTGCAG,39600 fluorescence intensity (a.u.)
2,TCATCGTTGATTGAATCGCTTAATTTGGTGCATGCTTGGACGGAGTCACCTAGTGCAG,39000 fluorescence intensity (a.u.)
3,ACCAGTAATCAAATCTTTGCATTTACTCGCACATTTAGTACGGAGTCACCTAGTGCAG,3230 fluorescence intensity (a.u.)
4,TTTTGATTCATATATTACTGACATGTCTCGTTGTTTCGCCCGGAGTCACCTAGTGCAG,3530 fluorescence intensity (a.u.)
5,CAAATTGAACTATCCAATTATCATCCATCACCAACTCTCCCGGAGTCACCTAGTGCAG,19200 fluorescence intensity (a.u.)
6,TTATGTAATTAGTTTTGTAAGTAGTCTATATTTAATACCCCGGAGTCACCTAGTGCAG,12900 fluorescence intensity (a.u.)
7,TCACAAATGACAGAACTTACAGGCTCTTCACCTCTCTACTCGGAGTCACCTAGTGCAG,3540 fluorescence intensity (a.u.)
8,ATATAATACTTAATTTATTATGCATTAATGAATGGTTCTGCGGAGTCACCTAGTGCAG,15900 fluorescence intensity (a.u.)
9,ACTGTTTAATTTGTTTGTTATCAATTTGCTACAAACCGCACGGAGTCACCTAGTGCAG,20700 fluorescence intensity (a.u.)
10,ATAATTTACTGTATAATTAGAGAAAATCCAAGAAATACCACGGAGTCACCTAGTGCAG,32300 fluorescence intensity (a.u.)
11,TAAAACTGTCGTTTAATTGGATCAGAATCAACCAGCTAACCGGAGTCACCTAGTGCAG,22400 fluorescence intensity (a.u.)
12,TTGATTTGATTCATCACCAGGATTACATTTATAGAGCATTCGGAGTCACCTAGTGCAG,25600 fluorescence intensity (a.u.)
13,GTATAATTTCCTTGTTTTAATTTCAATATGTTTATTTGTACGGAGTCACCTAGTGCAG,15100 fluorescence intensity (a.u.)
14,CATCCAATCAGTTTAGACAAGGTAAAGTCTCATTTTCACACGGAGTCACCTAGTGCAG,17800 fluorescence intensity (a.u.)
15,AAGAGAAGAAAATCATTTTCTAATTAACCATCCTGGTTCTCGGAGTCACCTAGTGCAG,5390 fluorescence intensity (a.u.)
16,CTCTGCTTAATGATTAGAGTAAGATTAAAAGGTGATAGCGCGGAGTCACCTAGTGCAG,13300 fluorescence intensity (a.u.)
17,ATTATGATGATAGAGATAGGTTCTGCATATTTCTTTTACCCGGAGTCACCTAGTGCAG,5860 fluorescence intensity (a.u.)
18,CTGATTGCGATTACGACGTAAACATCAGGACCGTAGGGACCGGAGTCACCTAGTGCAG,40800 fluorescence intensity (a.u.)
19,GTAAATTAGCTTGCGGATTGCAGCAGAATAGCTCATTCGGCGGAGTCACCTAGTGCAG,23700 fluorescence intensity (a.u.)
20,AAAATTATATAATTAGAAACACGAGGATGCTAAGATTTGGCGGAGTCACCTAGTGCAG,29300 fluorescence intensity (a.u.)
21,TCGTTCATTTGACACTGATTGAAACAAATTAAATGAATTTCGGAGTCACCTAGTGCAG,30000 fluorescence intensity (a.u.)

# From paper PMC7819943, “Rice protein-binding microarrays: a tool to detect cis-acting elements near promoter regions in rice”
